Where a chain is given by its changes, count along the chain named. The list shows a part of the results.
T1: RBFOX1 RRM RbFoxmut (Fox-RRM*) (Homo sapiens, UniProt Q9NWB1 109-208, R118D;E147R;N151S;E152T)
T1 sequence: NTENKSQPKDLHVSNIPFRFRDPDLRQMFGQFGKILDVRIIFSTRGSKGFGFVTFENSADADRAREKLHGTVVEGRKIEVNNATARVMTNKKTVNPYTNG

B1: CCGCCUU (DNA:RNA)
RNA: GGGAGACCGGAAUUCAGAUUGUCCCCGCCUUUUAAAUCCCGUCGUAGCCACCA
DNA 1: CAATCTGAATTCCGGTCTCCC
DNA 2: TGGTGGCTACGACGGGATT
B2: AGUGGGA (DNA:RNA)
RNA: GGGAGACCGGAAUUCAGAUUGUCCAGUGGGAUUAAAUCCCGUCGUAGCCACCA
DNA 1: CAATCTGAATTCCGGTCTCCC
DNA 2: TGGTGGCTACGACGGGATT
B3: GCCUGUU (DNA:RNA)
RNA: B1 RNA with C25G, G27C, C28U, C29G
DNA 1: CAATCTGAATTCCGGTCTCCC
DNA 2: TGGTGGCTACGACGGGATT
B4: GGGGUAG (DNA:RNA)
RNA: B2 RNA with A25G, U27G, G29U, G30A, A31G
DNA 1: CAATCTGAATTCCGGTCTCCC
DNA 2: TGGTGGCTACGACGGGATT
B5: AGGUGCG (DNA:RNA)
RNA: B2 RNA with U27G, G28U, G30C, A31G
DNA 1: CAATCTGAATTCCGGTCTCCC
DNA 2: TGGTGGCTACGACGGGATT
B6: GGGACCG (DNA:RNA)
RNA: B1 RNA with C25G, C26G, C28A, U30C, U31G
DNA 1: CAATCTGAATTCCGGTCTCCC
DNA 2: TGGTGGCTACGACGGGATT
B7: AGAGGGU (DNA:RNA)
RNA: B2 RNA with U27A, A31U
DNA 1: CAATCTGAATTCCGGTCTCCC
DNA 2: TGGTGGCTACGACGGGATT
B8: CGUGGUA (DNA:RNA)
RNA: B2 RNA with A25C, G30U
DNA 1: CAATCTGAATTCCGGTCTCCC
DNA 2: TGGTGGCTACGACGGGATT
B9: GCGGCUG (DNA:RNA)
RNA: B1 RNA with C25G, C28G, U31G
DNA 1: CAATCTGAATTCCGGTCTCCC
DNA 2: TGGTGGCTACGACGGGATT
B10: UUGGGUG (DNA:RNA)
RNA: B2 RNA with A25U, G26U, U27G, G30U, A31G
DNA 1: CAATCTGAATTCCGGTCTCCC
DNA 2: TGGTGGCTACGACGGGATT
B11: AAGUCGG (DNA:RNA)
RNA: B2 RNA with G26A, U27G, G28U, G29C, A31G
DNA 1: CAATCTGAATTCCGGTCTCCC
DNA 2: TGGTGGCTACGACGGGATT
B12: CUCUUUC (DNA:RNA)
RNA: B1 RNA with C26U, G27C, C28U, C29U, U31C
DNA 1: CAATCTGAATTCCGGTCTCCC
DNA 2: TGGTGGCTACGACGGGATT
B13: CGUAUGA (DNA:RNA)
RNA: B2 RNA with A25C, G28A, G29U
DNA 1: CAATCTGAATTCCGGTCTCCC
DNA 2: TGGTGGCTACGACGGGATT
B14: UACGUAA (DNA:RNA)
RNA: B2 RNA with A25U, G26A, U27C, G29U, G30A
DNA 1: CAATCTGAATTCCGGTCTCCC
DNA 2: TGGTGGCTACGACGGGATT
B15: AAGUGUC (DNA:RNA)
RNA: B2 RNA with G26A, U27G, G28U, G30U, A31C
DNA 1: CAATCTGAATTCCGGTCTCCC
DNA 2: TGGTGGCTACGACGGGATT
B16: UGGAACG (DNA:RNA)
RNA: B2 RNA with A25U, U27G, G28A, G29A, G30C, A31G
DNA 1: CAATCTGAATTCCGGTCTCCC
DNA 2: TGGTGGCTACGACGGGATT
B17: UCCACCG (DNA:RNA)
RNA: B1 RNA with C25U, G27C, C28A, U30C, U31G
DNA 1: CAATCTGAATTCCGGTCTCCC
DNA 2: TGGTGGCTACGACGGGATT
B18: CCCGGCC (DNA:RNA)
RNA: B2 RNA with A25C, G26C, U27C, G30C, A31C
DNA 1: CAATCTGAATTCCGGTCTCCC
DNA 2: TGGTGGCTACGACGGGATT
B19: CUCUGCA (DNA:RNA)
RNA: B2 RNA with A25C, G26U, U27C, G28U, G30C
DNA 1: CAATCTGAATTCCGGTCTCCC
DNA 2: TGGTGGCTACGACGGGATT
B20: GCAUGGA (DNA:RNA)
RNA: B2 RNA with A25G, G26C, U27A, G28U
DNA 1: CAATCTGAATTCCGGTCTCCC
DNA 2: TGGTGGCTACGACGGGATT

What follows are binders tested against T1, RBFOX1 RRM RbFoxmut (Fox-RRM*) (assay: EMSA; HiTS-Eq, 1 nM pool, 10 min; buffer printed only for the single-RNA assays: 10 mM Tris pH 7.5, 150 mM NaCl, 3.4 mM EDTA, 0.001% NP-40, 30 C). Details: tags: His6 N-terminal (pET28a); label: 5' 32P.
In short: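 Relative association constants, normalised to the cognate motif, were derived by comparing read counts of each RNA species with those of the control reaction. The RNA sequenced was the free fraction, separated by 8% native PAGE after a 10 min equilibration in 50 µL of 1 nM 5′-radiolabelled RNA (7 randomized nucleotides) with increasing concentrations of purified wild-type or mutant RbFox RRM.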
In the case of B1, the binding signal is reported as 0.106 KA relative to UGCAUGU. In the case of B2, the binding signal is reported as 0.0902 KA relative to UGCAUGU. In the case of B3, the binding signal is reported as 0.15 KA relative to UGCAUGU. With B4 the binding signal was 0.174 KA relative to UGCAUGU. B5 was tested, and the binding signal was 0.22 KA relative to UGCAUGU. B6 was tested, and the binding signal was 0.189 KA relative to UGCAUGU. With B7 the binding signal was 0.096 KA relative to UGCAUGU. For B8, the binding signal was 0.243 KA relative to UGCAUGU. In the case of B9, the binding signal is reported as 0.203 KA relative to UGCAUGU. For B10, the binding signal was 0.373 KA relative to UGCAUGU. In the case of B11, the binding signal is reported as 0.103 KA relative to UGCAUGU. B12 was tested, and the binding signal was 0.0662 KA relative to UGCAUGU. For B13, the binding signal was 0.258 KA relative to UGCAUGU. With B14 the binding signal was 0.0898 KA relative to UGCAUGU. B15 was tested, and the binding signal was 0.176 KA relative to UGCAUGU. With B16 the binding signal was 0.84 KA relative to UGCAUGU. For B17, the binding signal was 0.0787 KA relative to UGCAUGU. For B18, the binding signal was 0.138 KA relative to UGCAUGU. For B19, the binding signal was 0.173 KA relative to UGCAUGU. In the case of B20, the binding signal is reported as 0.23 KA relative to UGCAUGU.
